These are yes or no findings as the source states them, for the method shown. In cells and extracts the contact can be indirect. Some entries that bind do so weakly or less than the wild type. For some of these results: Tags and fused reporters may be left off the sequences shown.
Assays:
[1] = target: T1, p54nrb/NONO (54 kDa nuclear RNA- and DNA-binding protein/Non-POU-domain-containing octamer binding protein), endogenous (human (endogenous in Hep3B, HepG2)) (UniProt Q15233); test: proximity ligation; in situ PLA on Hep3B cells under normoxia or hypoxia
T1 sequence: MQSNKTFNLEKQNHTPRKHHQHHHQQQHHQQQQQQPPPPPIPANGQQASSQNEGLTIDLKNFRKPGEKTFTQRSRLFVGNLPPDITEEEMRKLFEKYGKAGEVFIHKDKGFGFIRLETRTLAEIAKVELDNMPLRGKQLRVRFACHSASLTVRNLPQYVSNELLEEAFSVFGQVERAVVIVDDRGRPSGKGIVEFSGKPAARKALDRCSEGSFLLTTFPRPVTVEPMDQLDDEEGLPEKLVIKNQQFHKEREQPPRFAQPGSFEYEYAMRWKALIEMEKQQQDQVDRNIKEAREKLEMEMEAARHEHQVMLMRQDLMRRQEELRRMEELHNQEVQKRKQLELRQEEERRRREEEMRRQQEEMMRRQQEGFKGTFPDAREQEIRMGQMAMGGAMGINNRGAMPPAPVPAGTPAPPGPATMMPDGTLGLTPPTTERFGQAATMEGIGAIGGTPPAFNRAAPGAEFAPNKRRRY

Sequences of proteins named here, by UniProt entry; tags and fusion partners are left off.
UniProt Q16665: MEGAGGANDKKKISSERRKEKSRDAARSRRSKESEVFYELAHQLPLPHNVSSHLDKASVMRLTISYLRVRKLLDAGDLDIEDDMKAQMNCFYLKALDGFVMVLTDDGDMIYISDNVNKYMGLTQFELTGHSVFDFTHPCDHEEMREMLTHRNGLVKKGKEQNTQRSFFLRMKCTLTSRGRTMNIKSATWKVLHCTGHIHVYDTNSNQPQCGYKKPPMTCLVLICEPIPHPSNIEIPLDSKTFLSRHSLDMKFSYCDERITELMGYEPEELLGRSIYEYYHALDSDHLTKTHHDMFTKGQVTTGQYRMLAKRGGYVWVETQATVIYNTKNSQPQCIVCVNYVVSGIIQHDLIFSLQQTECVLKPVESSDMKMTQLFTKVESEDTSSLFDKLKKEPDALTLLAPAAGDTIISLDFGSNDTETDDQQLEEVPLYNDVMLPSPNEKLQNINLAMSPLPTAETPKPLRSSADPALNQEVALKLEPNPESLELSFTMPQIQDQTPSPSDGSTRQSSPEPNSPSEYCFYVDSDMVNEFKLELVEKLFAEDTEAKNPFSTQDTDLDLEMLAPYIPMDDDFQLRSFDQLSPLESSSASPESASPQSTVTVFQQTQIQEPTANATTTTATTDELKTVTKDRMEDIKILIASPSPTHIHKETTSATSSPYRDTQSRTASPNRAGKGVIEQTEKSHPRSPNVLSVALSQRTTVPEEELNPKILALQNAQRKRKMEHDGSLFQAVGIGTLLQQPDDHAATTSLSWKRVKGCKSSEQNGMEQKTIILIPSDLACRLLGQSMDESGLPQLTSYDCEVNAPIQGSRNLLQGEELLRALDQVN
UniProt Q99814: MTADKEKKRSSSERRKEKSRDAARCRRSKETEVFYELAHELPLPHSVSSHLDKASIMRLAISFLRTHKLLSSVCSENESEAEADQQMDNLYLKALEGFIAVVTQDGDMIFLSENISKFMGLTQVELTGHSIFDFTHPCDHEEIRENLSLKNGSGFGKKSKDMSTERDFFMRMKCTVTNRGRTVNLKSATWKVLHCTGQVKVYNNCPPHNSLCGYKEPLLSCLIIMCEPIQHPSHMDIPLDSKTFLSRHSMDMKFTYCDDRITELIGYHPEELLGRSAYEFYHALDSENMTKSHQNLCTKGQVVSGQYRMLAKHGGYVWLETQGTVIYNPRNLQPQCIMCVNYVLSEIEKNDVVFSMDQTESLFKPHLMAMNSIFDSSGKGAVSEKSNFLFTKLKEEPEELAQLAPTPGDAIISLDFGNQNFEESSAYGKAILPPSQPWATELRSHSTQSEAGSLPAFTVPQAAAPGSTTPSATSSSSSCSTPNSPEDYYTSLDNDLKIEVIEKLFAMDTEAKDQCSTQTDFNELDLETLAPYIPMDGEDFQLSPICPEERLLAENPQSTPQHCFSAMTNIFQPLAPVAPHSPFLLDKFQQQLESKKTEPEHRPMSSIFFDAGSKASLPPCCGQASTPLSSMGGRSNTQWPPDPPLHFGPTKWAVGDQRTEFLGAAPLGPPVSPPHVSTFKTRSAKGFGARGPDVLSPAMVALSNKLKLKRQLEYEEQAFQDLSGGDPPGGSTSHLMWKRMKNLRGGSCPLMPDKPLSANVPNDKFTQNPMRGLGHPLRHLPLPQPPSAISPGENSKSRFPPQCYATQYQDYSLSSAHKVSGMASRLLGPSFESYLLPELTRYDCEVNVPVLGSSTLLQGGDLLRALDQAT
UniProt Q92793: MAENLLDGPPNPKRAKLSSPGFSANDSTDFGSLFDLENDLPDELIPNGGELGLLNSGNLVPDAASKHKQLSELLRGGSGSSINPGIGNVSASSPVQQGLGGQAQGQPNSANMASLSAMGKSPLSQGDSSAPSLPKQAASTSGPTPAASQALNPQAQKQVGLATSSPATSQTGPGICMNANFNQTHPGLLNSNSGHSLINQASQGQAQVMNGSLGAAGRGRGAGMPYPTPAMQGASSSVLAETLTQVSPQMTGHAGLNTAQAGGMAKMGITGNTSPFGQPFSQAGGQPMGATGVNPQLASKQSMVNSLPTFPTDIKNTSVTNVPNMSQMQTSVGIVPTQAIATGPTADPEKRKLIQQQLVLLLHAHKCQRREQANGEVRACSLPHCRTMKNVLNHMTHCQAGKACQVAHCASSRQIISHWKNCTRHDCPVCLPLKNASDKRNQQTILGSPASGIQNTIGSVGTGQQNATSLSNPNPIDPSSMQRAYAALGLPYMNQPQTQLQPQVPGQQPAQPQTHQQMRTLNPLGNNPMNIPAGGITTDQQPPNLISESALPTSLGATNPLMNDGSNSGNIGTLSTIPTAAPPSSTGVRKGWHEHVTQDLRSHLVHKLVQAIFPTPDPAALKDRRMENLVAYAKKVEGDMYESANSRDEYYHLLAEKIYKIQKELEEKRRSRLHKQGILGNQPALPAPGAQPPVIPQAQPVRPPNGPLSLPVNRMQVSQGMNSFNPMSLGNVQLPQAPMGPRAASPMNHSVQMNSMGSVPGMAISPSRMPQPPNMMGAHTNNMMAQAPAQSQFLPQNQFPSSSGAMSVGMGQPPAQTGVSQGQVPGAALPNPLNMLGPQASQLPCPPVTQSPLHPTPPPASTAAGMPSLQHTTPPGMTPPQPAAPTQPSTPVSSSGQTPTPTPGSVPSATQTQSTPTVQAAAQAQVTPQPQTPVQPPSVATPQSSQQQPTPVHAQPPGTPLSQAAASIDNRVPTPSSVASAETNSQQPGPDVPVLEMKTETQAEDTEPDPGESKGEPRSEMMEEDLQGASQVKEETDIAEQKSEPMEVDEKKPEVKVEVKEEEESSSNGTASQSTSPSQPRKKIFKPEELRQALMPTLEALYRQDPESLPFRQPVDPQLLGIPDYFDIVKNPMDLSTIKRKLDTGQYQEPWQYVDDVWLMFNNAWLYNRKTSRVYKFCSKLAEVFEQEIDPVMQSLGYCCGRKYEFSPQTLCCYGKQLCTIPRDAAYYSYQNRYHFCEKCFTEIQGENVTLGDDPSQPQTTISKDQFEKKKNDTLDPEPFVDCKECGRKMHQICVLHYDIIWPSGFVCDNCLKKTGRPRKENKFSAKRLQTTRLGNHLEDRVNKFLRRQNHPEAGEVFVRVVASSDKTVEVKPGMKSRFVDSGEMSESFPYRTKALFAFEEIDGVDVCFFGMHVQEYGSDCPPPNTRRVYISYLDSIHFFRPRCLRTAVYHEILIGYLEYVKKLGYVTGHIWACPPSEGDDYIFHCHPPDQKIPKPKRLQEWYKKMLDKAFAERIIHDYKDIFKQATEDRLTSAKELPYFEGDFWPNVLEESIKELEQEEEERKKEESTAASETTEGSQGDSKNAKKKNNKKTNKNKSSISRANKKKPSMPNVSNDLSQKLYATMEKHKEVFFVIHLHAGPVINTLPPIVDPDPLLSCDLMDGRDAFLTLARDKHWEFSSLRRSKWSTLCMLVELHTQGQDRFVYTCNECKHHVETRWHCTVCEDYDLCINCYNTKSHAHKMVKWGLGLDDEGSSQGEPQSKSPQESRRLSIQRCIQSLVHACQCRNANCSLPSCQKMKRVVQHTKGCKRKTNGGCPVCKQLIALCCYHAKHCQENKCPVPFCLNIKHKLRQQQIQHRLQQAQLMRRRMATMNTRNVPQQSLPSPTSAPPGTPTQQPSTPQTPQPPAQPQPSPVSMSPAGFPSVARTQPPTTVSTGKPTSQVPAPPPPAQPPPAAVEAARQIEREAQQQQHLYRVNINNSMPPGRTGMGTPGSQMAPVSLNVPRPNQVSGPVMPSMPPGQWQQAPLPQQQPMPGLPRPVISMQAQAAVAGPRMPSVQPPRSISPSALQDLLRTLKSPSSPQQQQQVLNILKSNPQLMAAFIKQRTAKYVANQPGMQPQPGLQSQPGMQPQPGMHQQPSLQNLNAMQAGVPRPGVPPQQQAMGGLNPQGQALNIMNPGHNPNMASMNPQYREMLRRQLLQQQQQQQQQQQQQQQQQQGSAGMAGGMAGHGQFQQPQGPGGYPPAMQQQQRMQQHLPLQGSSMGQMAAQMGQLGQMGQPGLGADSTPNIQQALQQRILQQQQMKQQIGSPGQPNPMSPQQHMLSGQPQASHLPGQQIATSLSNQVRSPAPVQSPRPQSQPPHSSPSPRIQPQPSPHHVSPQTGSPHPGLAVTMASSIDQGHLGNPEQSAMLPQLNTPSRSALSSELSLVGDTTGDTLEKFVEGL
UniProt Q09472: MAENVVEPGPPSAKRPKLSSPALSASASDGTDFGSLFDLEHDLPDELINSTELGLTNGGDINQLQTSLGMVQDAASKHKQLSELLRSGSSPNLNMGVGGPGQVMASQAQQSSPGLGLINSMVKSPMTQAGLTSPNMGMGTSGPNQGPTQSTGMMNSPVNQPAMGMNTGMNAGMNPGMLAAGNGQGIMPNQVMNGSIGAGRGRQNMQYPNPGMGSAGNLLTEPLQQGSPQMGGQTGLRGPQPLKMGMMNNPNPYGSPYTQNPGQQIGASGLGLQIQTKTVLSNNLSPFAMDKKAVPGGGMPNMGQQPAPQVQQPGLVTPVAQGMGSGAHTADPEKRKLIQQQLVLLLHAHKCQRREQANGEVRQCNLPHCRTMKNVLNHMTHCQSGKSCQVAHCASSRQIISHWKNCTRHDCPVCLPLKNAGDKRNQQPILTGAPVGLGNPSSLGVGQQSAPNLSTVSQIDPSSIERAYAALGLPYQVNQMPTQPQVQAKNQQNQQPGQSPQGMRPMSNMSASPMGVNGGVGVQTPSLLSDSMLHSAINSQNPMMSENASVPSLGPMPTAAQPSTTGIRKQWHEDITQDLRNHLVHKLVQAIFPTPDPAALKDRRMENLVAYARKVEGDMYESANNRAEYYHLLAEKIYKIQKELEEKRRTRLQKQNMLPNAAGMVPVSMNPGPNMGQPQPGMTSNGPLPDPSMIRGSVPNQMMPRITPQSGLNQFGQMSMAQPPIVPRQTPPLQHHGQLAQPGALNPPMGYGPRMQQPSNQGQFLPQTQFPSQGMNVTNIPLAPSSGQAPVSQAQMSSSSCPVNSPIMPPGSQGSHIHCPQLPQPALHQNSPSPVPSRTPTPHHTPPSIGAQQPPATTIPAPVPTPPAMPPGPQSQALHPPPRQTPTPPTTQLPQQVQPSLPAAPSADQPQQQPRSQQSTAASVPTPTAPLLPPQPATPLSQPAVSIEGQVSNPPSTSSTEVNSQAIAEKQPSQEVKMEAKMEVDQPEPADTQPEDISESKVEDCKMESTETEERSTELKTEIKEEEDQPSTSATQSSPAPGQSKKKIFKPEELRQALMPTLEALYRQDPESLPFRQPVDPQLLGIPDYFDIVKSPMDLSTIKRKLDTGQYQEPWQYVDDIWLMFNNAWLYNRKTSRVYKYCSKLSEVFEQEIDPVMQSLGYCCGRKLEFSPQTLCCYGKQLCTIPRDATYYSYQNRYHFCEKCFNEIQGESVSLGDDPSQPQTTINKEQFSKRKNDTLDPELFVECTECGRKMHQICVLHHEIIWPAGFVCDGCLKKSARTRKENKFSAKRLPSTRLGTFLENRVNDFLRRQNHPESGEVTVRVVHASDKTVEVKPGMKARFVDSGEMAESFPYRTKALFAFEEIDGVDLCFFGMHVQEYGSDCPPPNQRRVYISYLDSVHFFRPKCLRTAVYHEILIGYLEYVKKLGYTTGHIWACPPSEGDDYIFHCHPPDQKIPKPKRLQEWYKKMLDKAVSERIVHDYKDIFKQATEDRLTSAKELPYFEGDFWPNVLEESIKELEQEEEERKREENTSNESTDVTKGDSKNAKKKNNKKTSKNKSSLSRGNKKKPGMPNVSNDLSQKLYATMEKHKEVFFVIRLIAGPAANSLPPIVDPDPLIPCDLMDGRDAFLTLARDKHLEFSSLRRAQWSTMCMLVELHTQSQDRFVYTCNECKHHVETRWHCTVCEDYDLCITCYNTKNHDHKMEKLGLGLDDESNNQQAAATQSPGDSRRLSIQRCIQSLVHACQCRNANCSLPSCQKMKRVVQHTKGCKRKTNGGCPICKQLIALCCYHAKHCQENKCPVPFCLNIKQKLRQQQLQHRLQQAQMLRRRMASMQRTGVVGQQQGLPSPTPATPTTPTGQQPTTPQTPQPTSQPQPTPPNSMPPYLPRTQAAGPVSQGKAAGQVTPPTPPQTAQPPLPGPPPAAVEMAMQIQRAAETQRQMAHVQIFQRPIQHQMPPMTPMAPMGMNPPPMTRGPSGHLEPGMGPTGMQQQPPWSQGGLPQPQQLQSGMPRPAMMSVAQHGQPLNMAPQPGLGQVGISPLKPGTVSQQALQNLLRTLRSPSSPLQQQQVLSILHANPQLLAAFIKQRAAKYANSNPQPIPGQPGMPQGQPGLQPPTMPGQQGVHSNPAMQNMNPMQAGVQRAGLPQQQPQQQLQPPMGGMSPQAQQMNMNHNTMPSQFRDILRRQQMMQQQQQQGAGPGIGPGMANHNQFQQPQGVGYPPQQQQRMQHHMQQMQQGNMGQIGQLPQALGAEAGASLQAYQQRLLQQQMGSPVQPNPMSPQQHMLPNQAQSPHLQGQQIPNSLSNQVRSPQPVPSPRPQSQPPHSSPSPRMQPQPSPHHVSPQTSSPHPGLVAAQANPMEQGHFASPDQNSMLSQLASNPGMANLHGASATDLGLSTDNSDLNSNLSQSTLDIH

[2] = target: HIF-1α, endogenous (human (endogenous in Hep3B, HepG2, Huh7)) (UniProt Q16665); test: proximity ligation; PLA in Hep3B cells in the presence or absence of NONO
[3] = target: HIF-1α, endogenous (human (endogenous in Hep3B, HepG2, Huh7)) (UniProt Q16665); test: co-IP; Huh7 cells with NONO knockout or not, 1% O2 for 24 h; IP with anti-HIF-1α antibody, western blot; IgG as negative control
[4] = target: T2, HA-tagged NONO (human) (UniProt Q15233); test: co-IP; HepG2 transfected with HA-tagged NONO for 24 h, then hypoxia (1% O2) or normoxia for 24 h; IP with anti-HA antibody, western blot; IgG as negative control
T2 sequence: T1 sequence

[5] = target: T3, deletion mutant NONO (aa1-274) (human) (UniProt Q15233); test: pull-down; lysates of HepG2 transfected with Flag-tagged HIF-1α or HIF-2α for 48 h, incubated with fragments of NONO in GST pull-down assays; only the target purified
T3 sequence: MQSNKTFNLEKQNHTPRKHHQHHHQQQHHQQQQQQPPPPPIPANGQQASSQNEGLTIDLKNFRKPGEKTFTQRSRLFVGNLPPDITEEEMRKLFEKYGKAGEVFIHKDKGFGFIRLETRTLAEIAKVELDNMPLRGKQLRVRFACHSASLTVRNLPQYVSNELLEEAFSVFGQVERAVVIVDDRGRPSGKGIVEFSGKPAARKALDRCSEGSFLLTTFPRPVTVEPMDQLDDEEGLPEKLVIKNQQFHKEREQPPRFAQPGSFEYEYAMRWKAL

[6] = target: T4, HA-tagged PSPC1 (UniProt Q8WXF1); test: co-IP; HepG2 co-transfected with HA-tagged DBHS plasmids and Flag-tagged HIF-1α or HIF-2α for 48 h; IP with anti-HA antibody, western blot; IgG as negative control (for the HIF-1β panel no HIF-1β plasmid is told)
T4 sequence: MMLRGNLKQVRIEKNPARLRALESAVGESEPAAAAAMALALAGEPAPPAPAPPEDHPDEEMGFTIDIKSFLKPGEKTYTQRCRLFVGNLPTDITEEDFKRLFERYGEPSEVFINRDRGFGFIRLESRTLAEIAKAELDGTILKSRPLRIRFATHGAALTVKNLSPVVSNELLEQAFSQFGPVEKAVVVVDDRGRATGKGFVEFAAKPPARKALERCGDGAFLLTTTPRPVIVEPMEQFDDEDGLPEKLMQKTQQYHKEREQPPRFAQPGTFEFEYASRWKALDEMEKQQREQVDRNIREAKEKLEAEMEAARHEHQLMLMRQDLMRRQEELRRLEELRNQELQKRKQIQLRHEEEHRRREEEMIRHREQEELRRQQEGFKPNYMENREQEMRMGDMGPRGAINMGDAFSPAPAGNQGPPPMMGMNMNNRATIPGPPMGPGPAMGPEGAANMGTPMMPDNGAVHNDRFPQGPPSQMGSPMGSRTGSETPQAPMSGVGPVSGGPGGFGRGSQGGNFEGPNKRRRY

[7] = target: T5, HA-tagged SFPQ (UniProt P23246); test: as above
T5 sequence: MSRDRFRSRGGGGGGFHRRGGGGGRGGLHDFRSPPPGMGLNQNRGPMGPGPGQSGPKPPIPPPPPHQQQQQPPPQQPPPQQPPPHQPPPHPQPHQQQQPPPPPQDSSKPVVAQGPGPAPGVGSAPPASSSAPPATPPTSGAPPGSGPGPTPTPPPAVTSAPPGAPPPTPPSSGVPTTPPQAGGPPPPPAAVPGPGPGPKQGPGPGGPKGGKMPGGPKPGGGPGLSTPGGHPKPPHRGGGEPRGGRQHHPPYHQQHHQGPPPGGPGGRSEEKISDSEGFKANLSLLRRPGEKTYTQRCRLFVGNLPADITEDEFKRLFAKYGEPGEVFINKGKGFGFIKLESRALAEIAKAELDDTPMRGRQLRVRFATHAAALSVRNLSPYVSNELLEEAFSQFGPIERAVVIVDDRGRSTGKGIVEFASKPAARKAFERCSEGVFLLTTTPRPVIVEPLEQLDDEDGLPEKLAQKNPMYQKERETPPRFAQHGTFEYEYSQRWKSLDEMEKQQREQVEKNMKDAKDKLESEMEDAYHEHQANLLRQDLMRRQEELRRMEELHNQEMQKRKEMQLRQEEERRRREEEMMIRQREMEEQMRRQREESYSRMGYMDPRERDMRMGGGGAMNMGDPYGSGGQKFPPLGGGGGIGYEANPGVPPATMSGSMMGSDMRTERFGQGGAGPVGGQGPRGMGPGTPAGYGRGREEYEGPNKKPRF

[8] = target: T6, PSPC1 in HepG2 cells (PLA) (human (endogenous in HepG2)) (UniProt Q8WXF1); test: proximity ligation; PLA in HepG2 cells, DBHS proteins with HIF-1α, HIF-1β or HIF-2α
T6 sequence: T4 sequence

[9] = target: T7, SFPQ in HepG2 cells (PLA) (human (endogenous in HepG2)) (UniProt P23246); test: as above
T7 sequence: T5 sequence

[10] = target: HIF-2α, endogenous (human (endogenous in Hep3B, HepG2, SMMC-7721)) (UniProt Q99814); test: proximity ligation; PLA in SMMC-7721 cells in the presence or absence of NONO
[11] = target: HA-tagged HIF-2α (UniProt Q99814); test: co-IP; HepG2 transfected with HA-tagged HIF-2α for 48 h, lysates incubated with HA-tagged beads, immunoblot of endogenous p300; with or without NONO; IgG as negative control

| Substance | binding [1] | binding [2] | binding [3] | binding [4] | binding [5] | binding [6] | binding [7] | binding [8] | binding [9] | binding [10] | binding [11] |
| --- | --- | --- | --- | --- | --- | --- | --- | --- | --- | --- | --- |
| CBP, endogenous (from UniProt Q92793 1-2442) | binds | binds | binds | binds |  |  |  |  |  |  |  |
| Flag-tagged HIF-1α (from UniProt Q16665 1-826) |  |  |  |  | no binding | binds weakly | binds weakly |  |  |  |  |
| Flag-tagged HIF-2α (from UniProt Q99814 1-870) |  |  |  |  | no binding | no binding | binds |  |  |  |  |
| HIF-1α, endogenous (from UniProt Q16665 1-826) | binds |  |  | binds |  |  |  | binds weakly | binds weakly |  |  |
| HIF-1β, endogenous (from UniProt P27540 1-789) | binds |  |  | binds |  | binds | binds | binds | binds |  |  |
| HIF-2α, endogenous (from UniProt Q99814 1-870) | binds |  |  | binds |  |  |  | no binding | binds |  |  |
| p300, endogenous (from UniProt Q09472 1-2414) | binds |  |  | binds |  |  |  |  |  | binds | binds |

From publication PMC8211563
